# Inconclusive results and toxic doses are left out. A number of entries come with more than one value. Only these are listed. The source may hold further records. Results that share an entry differ for a reason that is not stated; some may be repeats, others may stem from another dose, organism or construct than stated.
# Test system: L1210 leukemia ip in BDF1 mice, survival T/C
# Experiment: NCI In Vivo Anticancer Drug Screen. Data for tumor model L1210 Leukemia (intraperitoneal) in B6D2F1 (BDF1) mice
# Details: vehicle: saline, higher = longer survival
SMILES,"T/C (endpoint: mean survival time, dose: 2.5 mg/kg/injection, schedule: Q01DX009 (ip))","T/C (endpoint: median survival time, dose: 800.0 mg/kg/injection, schedule: Q08DX002 (ip))"
Nc1nc(N)c2cc(CNc3ccc(C(=O)NC(CC(=O)O)C(=O)O)cc3)ccc2n1 (configuration not stated),100 % of control and 183 % of control,–
c1cc2n(n1)CCN2,–,120 % of control and 188 % of control

# Reference: PubChem BioAssay AID248 (DTP/NCI, 2004)
